# In paper PMC6919601, “Identification of Plasmodium dipeptidyl aminopeptidase allosteric inhibitors by high throughput screening” (PLoS ONE, 2019):
# The whole screen tested about 110,000 compounds, of which about 230 (0.21%) showed an effect of 50% or more. The list shows a part of the results.
# Biological target: DPAP1 (Plasmodium falciparum, UniProt Q8IIJ9)
# Test: primary screen, percent inhibition; read by cleavage of a fluorogenic dipeptide substrate; higher = more effect of the substance
# Set-up: species or system P. falciparum D10 trophozoite lysates; single well
# 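Further: 30 min substrate incubation versus DMSO and 10 µM JCP410 controls.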
# Sequence of DPAP1 (Q8IIJ9 whole entry, looked up): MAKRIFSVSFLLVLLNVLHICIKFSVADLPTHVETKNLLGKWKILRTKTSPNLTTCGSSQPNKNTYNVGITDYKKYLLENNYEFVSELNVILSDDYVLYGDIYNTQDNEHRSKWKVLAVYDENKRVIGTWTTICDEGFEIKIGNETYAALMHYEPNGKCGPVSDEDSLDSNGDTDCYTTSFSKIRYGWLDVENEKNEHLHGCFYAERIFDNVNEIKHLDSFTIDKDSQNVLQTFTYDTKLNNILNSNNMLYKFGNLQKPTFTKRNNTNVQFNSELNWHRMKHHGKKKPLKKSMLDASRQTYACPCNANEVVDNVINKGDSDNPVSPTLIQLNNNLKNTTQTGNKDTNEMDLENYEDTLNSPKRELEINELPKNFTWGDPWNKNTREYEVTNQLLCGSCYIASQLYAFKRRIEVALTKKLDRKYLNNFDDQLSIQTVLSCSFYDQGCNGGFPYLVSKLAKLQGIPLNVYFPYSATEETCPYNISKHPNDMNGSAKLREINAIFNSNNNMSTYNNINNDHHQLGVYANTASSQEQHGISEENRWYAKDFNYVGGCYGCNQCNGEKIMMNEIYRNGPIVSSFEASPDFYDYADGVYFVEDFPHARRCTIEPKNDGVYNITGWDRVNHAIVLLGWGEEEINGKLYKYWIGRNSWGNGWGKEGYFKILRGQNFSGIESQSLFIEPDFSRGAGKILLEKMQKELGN
row,Structure (SMILES),% Inhibition @ 10 uM [%]
1,O=C(Nc1nc(-c2ccccc2)cs1)c1ccccc1,-7.01
2,CC1=C(C#N)C(c2ccccc2F)C2=C(O)c3ccccc3C2=N1 (stereo not shown),-4.49
3,COC(=O)c1sccc1NC(=O)Nc1cn(C)c(=O)c2ccccc12,6.99
4,Oc1cc(-c2ccccc2)nn1-c1nc(-c2ccccc2)cs1,0.634
5,CC12CCC(c3c1nc1ccccc1[n+]3[O-])C2(C)C (stereo not shown),5.69
6,Cc1ccc(CS(=O)Cc2ccc(C(=O)NCCN(C)C)o2)cc1 (stereo not shown),0.401
7,O=C(Nc1sc2c(c1C(=O)NCC1CCCO1)CCCC2)c1ccccc1F (stereo not shown),1.93
8,CC(CNC(=O)Cn1cccc1C(=O)c1ccccc1)c1ccccc1 (stereo not shown),10.1
9,CCOC(=O)CCS(=O)(=O)c1ccc(Br)cc1,4.12
10,CCOc1cc(C2C(C#N)=C(N)Oc3[nH]nc(-c4cccs4)c32)cc(Br)c1O (stereo not shown),-1.98
11,COC(=O)c1cc(S(=O)(=O)NCCc2ccc(Cl)cc2)cn1C,-2.84
12,Clc1cccc(N2CCN(Cc3ccco3)CC2)c1,-1.07
13,Cc1ccc(/C(=C\N(C)c2ccccc2)S(=O)(=O)N2CCOCC2)cc1,-0.231
14,CCOc1ccccc1CNC(=O)Cn1sc2ccccc2c1=O,-9.13
15,N#CC1=C(N)N(c2ccccc2)C2=C(C(=O)CCC2)C1c1cccnc1 (stereo not shown),0.687
16,CCN(C(=O)c1cccc(C)c1)c1ccccc1C,-0.856
17,CCOc1ccc(-n2c(CN3CCN(C(=O)c4ccco4)CC3)nc3ccccc3c2=O)cc1,-3.56
18,Cc1ccc(-c2nc(CS(=O)(=O)CC(=O)NCCN3CCOCC3)c(C)o2)cc1,-0.138
19,Cc1cccc(-c2noc(CNC(=O)c3ccccc3)n2)c1,5.29
20,N#C/C(=C\N1CCOCC1)c1ccccc1,1.63
21,O=S(=O)(c1ccc(Sc2ccc(Cl)cc2)cc1)c1ccc(Sc2ccc(Cl)cc2)cc1,-3.55
22,COc1ccc(C2CC(C(F)(F)F)n3ncc(C(=O)Nc4ccc(C(C)O)cc4)c3N2)cc1OC (stereo not shown),0.147
23,Cc1cccc(N(CC(=O)N2CCN(c3ccccc3F)CC2)S(C)(=O)=O)c1C,9.11
24,COC(=O)c1c(C)sc2c1OC(N)=C(C#N)C2c1sc2ccccc2c1C (stereo not shown),2.62
25,O=C(Nc1ccccc1)N1CCc2scc[n+]2-c2ccccc21,-1.17

row,Structure (SMILES),% Inhibition @ 10 uM [%]
1,CNC(=O)CCCc1nc(-c2ccccc2OC)no1,-1.15
2,O=C(Nc1ccc(Cl)c(C(F)(F)F)c1)c1cccs1,2.26
3,O=C(CN1C(=O)c2ccccc2C1=O)N1CCN(c2ccc(Cl)cc2)CC1,-0.0555
4,O=C(Nc1cccc(Cl)c1)Nc1cccc(C(F)(F)F)c1,1.96
5,Nc1c(C(=O)c2ccccc2)sc2nc(-c3cccs3)cc(C(F)(F)F)c12,-3.13
6,CC(=O)c1ccc(NC(=O)COc2cc(C)cc(C)c2)cc1,-2.73
7,CN1CCN(c2ccc3nnc(CCC(=O)NC4CCN(Cc5ccccc5)CC4)n3n2)CC1,-0.264
8,Cc1ccc(N(CC(O)CN2CCOCC2)S(=O)(=O)c2ccccc2)cc1 (stereo not shown),-1.26
9,CCCN1CCC(NC(c2ccccc2)c2ccc(Cl)cc2)CC1 (stereo not shown),-7.93
10,O=C(/C=C/c1ccccc1)N1CCCCC1,4.81
11,CC(C)C[C@H](NC(=O)CNC(=O)OC(C)(C)C)C(=O)NCC#N,-3.48
12,COc1ccc(Cl)cc1NC(=O)CCN1CCN(c2ccccc2C)CC1,1.62
13,COc1ccc(C)c(N2C(=O)CC(N3CCN(c4ccc(F)cc4)CC3)C2=O)c1 (stereo not shown),-6.05
14,CCN(CC)C(=O)CN(c1ccccc1)S(=O)(=O)c1ccc(C)cc1,-0.796
15,Nn1c(SCC(=O)O)nnc1-c1ccncc1,-4.17
16,O=C(CN1N=C(c2ccccc2)CCC1=O)NCCc1ccc(Cl)cc1,0.514
17,COCCOC(=O)c1cnc(Nc2nc3ccccc3o2)nc1C,3.36
18,COC(=O)c1cn(CCc2c[nH]c3ccc(OC)cc23)cc(C(=O)OC)c1=O,3.47
19,COc1ccc(Br)cc1/C=c1\sc2nc(-c3cccs3)nn2c1=O,3.54
20,CCOc1cc(C(=O)NC2CCCCCC2)cc(OCC)c1OCC,-2.37
21,O=C1C2C(c3ccccc3)N(CN3C(c4ccccc4)C1C3c1ccccc1)C2c1ccccc1 (stereo not shown),0.716
22,COc1cc(C2C3CN(C)CC=C3C(C#N)=C(N)C2(C#N)C#N)ccc1OCc1ccccc1 (stereo not shown),2.19
23,CNS(=O)(=O)c1ccc(NC(=O)c2ccc(Cl)cc2Cl)cc1,-2.83
24,COc1ccc(N2CCN(C(=O)c3cc4nc(C(F)F)cc(C(F)F)n4n3)CC2)cc1,-3.71
25,O=C(O)CCn1c(=O)c2cc3c(=O)n(CCC(=O)O)c(=O)c3cc2c1=O,12

row,Structure (SMILES),% Inhibition @ 10 uM [%]
1,Cc1ccccc1NS(=O)(=O)c1cccc(C(=O)Nc2ccccc2[N+](=O)[O-])c1,4.82
2,CCOc1cc2c(cc1OCC)C(c1ccccc1OCC)NCC2 (stereo not shown),3.57
3,c1cncc(CNC2Cc3ccccc3C2)c1,-1.81
4,Cc1ccccc1Cn1c(C(=O)O)c(CNCCN(C)C2CCCCC2)c2ccccc21,-1.44
5,CCOC(=O)N1CCN(C2CCCCCCC2)CC1,3.48
6,CC(CNC(=O)CCn1c(=O)c2cccn2c2cccnc21)c1ccccc1 (stereo not shown),3.1
7,CCOc1ccc2nc(NC(=O)c3ccc(OCC)c(Br)c3)sc2c1,6.11
8,O=C(Cc1ccc(Cl)cc1)n1cc(Cl)cn1,-2.26
9,Cc1ccc(C2CC(C(F)F)n3ncc(C(=O)Nc4cnn(Cc5ccccc5C)c4)c3N2)cc1 (stereo not shown),1.34
10,COc1ccc(CNC(=O)CCCn2nc(C)c3c(C)n(-c4ccc(C)cc4)nc3c2=O)cc1,-4.19
11,c1cc2c[nH]nc2cc1NC1CCCCCC1,-1.56
12,Cc1cc(C)n2nc(CNS(=O)(=O)c3ccc(CC(C)C)cc3)nc2n1,-2.17
13,O=C1CC(N2CCN(Cc3ccc4c(c3)OCO4)CC2)C(=O)N1c1ccccc1 (stereo not shown),-4.31
14,COCCN1C(=O)/C(=C/c2ccc(N3CCOCC3)c(F)c2)S/C1=N\c1ccccc1,-8.09
15,Cc1ccc(C)n1-c1n[nH]c(S)n1,34.5
16,Cc1c(Cl)cccc1NC(=O)c1ccc([N+](=O)[O-])cc1,1.35
17,Cc1ccc(S(=O)(=O)N(CC(=O)Nc2cccnc2)c2ccc(C)c(Cl)c2)cc1,-1.33
18,Cc1ccc(C2=N/C(=C/N3CCOCC3)C(=O)O2)cc1,1.78
19,CCCC1C(=O)CC(C#N)(C#N)C(C#N)(C#N)C1c1ccccc1 (stereo not shown),-3.04
20,CC(C)SCCCCOc1ccc([N+](=O)[O-])cc1,0.634
21,CCOc1cc(C2C(C(=O)OC)=CN(C)C=C2C(=O)OC)cc(Br)c1OCC,-1.48
22,CC1CC(C)(C)NC(=S)N1CC(=O)NCCc1ccc(S(N)(=O)=O)cc1 (stereo not shown),-0.631
23,CN(C(=O)Nc1noc2c1COc1ccccc1-2)C1CCCCC1,3.04
24,Cc1cc(C)c2sc(N(CCCN(C)C)C(=O)c3ccco3)nc2c1,2.99
25,N=C1/C(=C/c2cn(Cc3ccc4c(c3)OCO4)c3ccccc23)C(=O)N=C2SC=CN12,-1.17

row,Structure (SMILES),% Inhibition @ 10 uM [%]
1,OC1=C2C(=Nc3nc4ccccc4n3C2c2cc(Br)ccc2F)CCC1 (stereo not shown),0.0842
2,CCCCN(CCNc1ncnc2onc(C)c12)Cc1ccco1,4.58
3,CN(C)c1cc(NCc2ccccc2)c([N+](=O)[O-])c2nonc12,1.04
4,CCCc1cc(O)n2nc(NCc3ccc(F)cc3)nc2n1,4.18
5,CSc1ccc(C2C(C#N)=C(N)Oc3[nH]nc(C)c32)cc1 (stereo not shown),0.673
6,CCCC1=NN(c2nc3ccccc3s2)C(=O)/C1=C(/C)N1CCOCC1,14.1
7,COc1cccc(-n2nnc(-c3nsc(NC(=O)c4cccs4)n3)c2C)c1,-11.2
8,COC(=O)c1oc2ccccc2c1NC(=O)c1ccccc1,9.19
9,CC(C)C(Nc1ccc(C(F)(F)F)cc1[N+](=O)[O-])C(=O)O (stereo not shown),1.21
10,Cc1ccc(-c2c(N3CCOCC3)c(=O)c2=O)cc1,-0.825
11,O=C(NC1CCCCC1)c1nnc(-c2cccc(Cl)c2)o1,-2.23
12,CCC(CC)=C(C#N)C(=O)NC1CCCCC1,2.68
13,COc1ccc(CNC(=O)c2sc3nc(-c4cccs4)ccc3c2N)cc1OC,6.63
14,O=c1oc2ccc(Br)cc2cc1-c1nc(-c2ccc([N+](=O)[O-])cc2)cs1,-2.42
15,O=C(O)c1ccc(-c2nc3cc(Cl)c(F)cc3[nH]2)cc1,3.49
16,O=C(O)c1cccc(NC(=O)c2ccc([N+](=O)[O-])cc2)c1,1.54
17,Cc1ccccc1CNC(=O)CN(c1ccc(F)cc1)S(=O)(=O)c1ccc2c(c1)OCCO2,2.63
18,CCC(=O)n1nc(-c2ccccc2)nc1NCc1ccc(F)cc1,7.02
19,O=C(NCc1ccco1)C1CCN(S(=O)(=O)c2ccc3[nH]c4c(c3c2)CCCCC4)CC1,3.7
20,Cc1cc(C(=O)C(=O)NCc2ccco2)c(C)n1-c1cccc(Cl)c1,0.655
21,CNC(=O)CCc1nc(-c2cccc(C)c2)no1,-0.45
22,O=C1C(=Cc2cccc3ccccc23)C(=O)c2ccccc21,-2.32
23,CC(C)(C)C1CCC2(CC1)N=C(c1ccccc1)C(=S)N2 (stereo not shown),0.559
24,Cc1c(Cl)cccc1NC(=O)c1ccco1,3.25
25,Cc1ccc2nc(-c3ccc(NC(=O)C4CC4)cc3)sc2c1,-4.14
